Reference: the RNAGym collection of RNA variant scans (doi:10.1073/pnas.2313332121)
Variants at the floor of the assay are shown more often than the library holds them.

B1: TPR 5TU (parent)
chain: GGAUCUUCUCGAUCUAACAAAAAAGACAAAUCUGCCACAAAGCUUGAGAGCAUCUUCGGAUGCAGAGGCGGCAGCCUUCGGUGGCGCGAUAGCGCCAACGUUCUCAACUAUGACACGCAAAACGCGUGCUCCGUUGAAUGGAGUUUAUCAUG

Variants of: B1
Experiment: polymerase ribozyme fitness, log enrichment relative to wild type (log ratio); higher = more active; in vitro selection for triplet polymerase activity
In short: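 To select mutant libraries of each subunit of a heterodimeric triplet polymerase ribozyme, built by PCR and transcribed, each was annealed with a biotinylated primer, partner subunit and triplets, then incubated frozen at −7 °C. Extended constructs were gel-excised, captured on streptavidin beads and amplified by RT-PCR, in one round carried out in triplicate. Illumina sequencing of input and output libraries kept genotypes with ≥10 input reads and ≥1 read per output. Fitness is the base-2 logarithm of genotype enrichment relative to wild-type enrichment, from inverse-variance-weighted replicate averages.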

GGAUCUUCUCGAUCUAACAAAAAAGACAAAUCUGCCACAAAGUUUGAGAGCAUGUACGGAUGCAGAGGCGGCAGCCUUCGGUGGGGCAAUAGCGCCAACGUUCUCAACUAUGACACGCAAAACGCGUACUUCGUUGAAUGGAGGUUAUCAUG [C43U C54G U56A C85G G88A G128A C131U U144G] and GGAUCUUCUCGAUCUAACAAAAAAGACAAAUCUGCCACAAAGUUUGAGAGCAUCUUCGGAUGCAGAGGCGGUAGCCUUCGGUGACGCGAUAGCGCCAACGUUCUCAACUCUGACACGCAAAACGCGUGCUCCGUUGAAUGGAGUUUAUCAUG [C43U C72U G84A A110C] cannot be ordered by “polymerase ribozyme fitness (log ratio)” value: at most -4.2 for the first, at most -4.2 for the second.

GGAUCUUCUCGAUCUAACAAAAAAGACAAAUCUGCCACAAAGUUUGAGAGCAUCUUCGGAUGUAGAGGCGGCCGCCUACGGUGUCGCGAGAGUGCCAACGUUCUCAACUAUGACACGCUAAACGCGUGCUCCGUUGAAUGGUGUUUAUCAUG [C43U C63U A73C U78A G84U U90G C93U A119U A142U] and GGAUCUUCUCGAUCUAACAAAAAAGACAAAUCUGCCACAAAGUUUGAGAGCAUCUUCGGAUGCAGAGGCGGUAGCCUUCGGUGGCGCGAUAUCGCCAACGUUCUCAACUAUGACACGCAAAACGCGUGCUCCGUUGAAUGGAGUUUAUCAUG [C43U C72U G92U] cannot be ordered by “polymerase ribozyme fitness (log ratio)” value: at most -4.2 for the first, at most -4.2 for the second.

First: GGAUCUUCUCGAUCUAACAAAAAAGACAAAUCUGCCACAAAGUUUGAGAGCAUCUUCGGAUGCAGAGGCGGUAGCCUUCGGUGGCGCGAUAGGGUCAACGUUCUCAACUAUGACACGCAAAACGCGUGCUCCGUUGAAUGGAGUUUAUCAUG [C43U C72U C93G C95U]
Second: GGAUCUUCUCGAUCUAACAAAAAAGACAAAUCUGCCACAAAGUUUGAGAGCAUCUUCGGAUGCAGAGGCGGCAGCCUUCGGUGGCGCGAUAGCGACAACGUUCUCAACUAUGACACGCAAAACGCGUGCUCCGUUGAAUGGAGUUUAUCAUG [C43U C95A]
The “polymerase ribozyme fitness (log ratio)” value of the first is lower: at most -4.2 for the first, -4.15 for the second.

GGAUCUUCUCGAUCUAACAAAAAAGACAAAUCUGCCACAAAGUUUGAGAGCAUCUUCGGAUGCAGAGGCGGCAGCCUUCGGUGGGGCGAUAGCGCCAACGUUCUCAACUAUGACACGCAAAACGCGUGCUCCGUUGAAUGGAGUUUAUCAUG [C43U C85G] and GGAUCUUCUCGAUCUAACAAAAAAGACAAAUCUGCCACAAAGUUUGAGAGCAUACUCGGAUGCAGAGGCGGCAGCCUUCGGUGGUGCGAUAGCGCCAAGGUUCUCAACUAUGACACGCAAAACGCGUGCUCCGUUGAAUGGAGUUUGUCAUG [C43U C54A U55C C85U C99G A147G] cannot be ordered by “polymerase ribozyme fitness (log ratio)” value: at most -4.2 for the first, at most -4.2 for the second.

GGAUCUUCUCGAUCUAACAAAAAAGACAAAUCUGCCACAAAGUUUGAGAGCAUCUUCGGAUGCAGAGGCGGCAGCCUUCGGUGGCGCGAUAGCGCUAACGUUCUCAACUAUGACACGCAAAACGCGUGCUCCGUUGUAUGGAGUUUAUCAUG [C43U C96U A137U] and GGAUCUUCUCGAUCUAACAAAAAAGACAAAUCUGCCACAAAGUUUGAGAGCAUCUUCGGAUGCAGAGGCGGCAGCCUUCGGUGGUGCGGUAGCGCCGACGUUCUCAACUAUGACACGCAAAACGCGUGCUCCGUUGAAUGGAGUUUAUCGUG [C43U C85U A89G A97G A150G] cannot be ordered by “polymerase ribozyme fitness (log ratio)” value: at most -4.2 for the first, at most -4.2 for the second.

GGAUCUUCUCGAUCUAACAAAAAAGACAAAUCUGCCACAAAGUUUGAGAGUAUCUUCGAAUGCAGAGGCGGCAGCCUUCGGUUGCCCGAUAGCGACAACGUUCUCAACUAUGACACGCAAAACGCGUGCUCCGUUGAAUGGAGUUUAUCAUG [C43U C51U G59A G83U G86C C95A] and GGAUCUUCUCGAUCUAACAAAAAAGACAAAUCUGCCACAAAGUUUGAGAGCAUCUUCGGAUGCAGAGGCGGCAGCCUUCGGUGGCGGGAUAGCGCCAACGUUCUCAACUAUGACACGCAAAACGCGUGCUCCGUUGAAUGCAGUUUAUCAUG [C43U C87G G141C] cannot be ordered by “polymerase ribozyme fitness (log ratio)” value: at most -4.2 for the first, at most -4.2 for the second.

GGAUCUUCUCGAUCUAACAAAAAAGACAAAUCUGCCACAAAGUUUGAGAGCAUCUUCGGAUGCAGAGGCGGCAGCCUUCGGUGGCGCGAUAGUGCCAACGUUCUCAACUAUGACACGCAAAACGCGUGCUCCGUUGAAUGGAGUUUAUAAUG [C43U C93U C149A] and GGAUCUUCUCGAUCUAACAAAAAAGACAAAUCUGCCACAAAGUUUGAGAGCAUCUUCGGAUGCAGAGGCGGCAGCCUUCGGUGGCGCGAUAGCGCAAACGUUCUCAACAAUGACGCGCAAAACACGUGCUCCGUUGAAUGGAGUUUAUCAUG [C43U C96A U109A A115G G124A] cannot be ordered by “polymerase ribozyme fitness (log ratio)” value: at most -4.2 for the first, at most -4.2 for the second.

GGAUCUUCUCGAUCUAACAAAAAAGACAAAUCUGCCACAAAGUUUGAGAGCAUCUUGGGAUGCAGAGGCGGCAGGCUUCGGUGGCGCGAUAGCGUCAACGUUCUCAACUAUGACACGCAAAACGCGUGCUCCGUUGAAUGGAGUUUAUCAUG [C43U C57G C75G C95U] and GGAUCUUCUCGAUCUAACAAAAAAGACAAAUCUGCCACAAAGUUUGAGAGCAUCUUCGGAUGCAGAGGCGGCAGCAUUCGGUGGCGCGAUAGCGUCAACGUUCUCAACUAUGACACGCAAAACGCGUGCUCCGUAGAAUGGAGUUUAUCAUG [C43U C76A C95U U135A] cannot be ordered by “polymerase ribozyme fitness (log ratio)” value: at most -4.2 for the first, at most -4.2 for the second.

Going from GGAUCUUCUCGAUCUAACAAAAAAGACAAAUCUGCCACAAAGUUUGAGAGCAUCUUUGGAUGCAGAGGCGGCAGCAUUAGGUGGCGCGAUACCGCCAACGGUCUCAACUAUGACACGCAAAUCGCGUGCUCCGUUGAAUGGAGUUUAUCAUG [C43U C57U C76A C79A G92C U101G A122U] to GGAUCUUCUCGAUCUAACAAAAAAGACAAAUCUGCCACAAAGUUUGAGAGCAUCUUCGGAUGCAGAGGCGGCAGCCUUAGGUGGCGCGAUAGCGCCAACGUUCUCAACUAUGACACGCAAAACGCGUGCUCCGUUGAAUGGAGUUUAUCAUG [C43U C79A], the “polymerase ribozyme fitness (log ratio)” value rises from at most -4.2 to -4.15.

With GGAUCUUCUCGAUCUAACAAAAAAGACAAAUCUGCCACAAAGUUUGAGAGCAUUUUCGGAAGCCGAGGCGGCAGCCUUCGGUGUCGCGAUAGCGCCAACGUUCUCAACUAUGACACGCAAAACGCGAGCUGCGUUGAAUGGGGUUUAUCAUG [C43U C54U U61A A64C G84U U127A C131G A142G] the “polymerase ribozyme fitness (log ratio)” value was at most -4.2.
